This is one part of the list.

This test addresses T1, OsWOX13 (Oryza sativa, UniProt Q5QMM3 1-267).
T1 sequence: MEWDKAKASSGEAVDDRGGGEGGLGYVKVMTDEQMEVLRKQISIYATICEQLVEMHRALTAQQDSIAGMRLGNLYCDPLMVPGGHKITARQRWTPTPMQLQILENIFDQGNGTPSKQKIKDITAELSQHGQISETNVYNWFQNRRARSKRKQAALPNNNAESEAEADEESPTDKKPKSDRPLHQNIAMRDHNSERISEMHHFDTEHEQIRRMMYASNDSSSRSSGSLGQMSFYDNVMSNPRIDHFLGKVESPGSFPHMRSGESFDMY
The test can be described thus: protein-binding microarray (RPBM); PBS, 2% BSA, 51.3 ng/ul salmon testes DNA, 50 uM zinc acetate, 200 nM TF, 25 C, 1 h; high values mean tight binding. Particulars: protein: recombinant; tags: N-terminal polyhistidine and DsRed monomer fusion (pET32a); label: CyDye5-dUTP incorporated in the synthesized complementary strand; 3' TTTTT single-stranded linker to array surface; dsDNA, one strand shown. The method in brief:
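Per-feature fluorescence intensity (arbitrary units), read on an Axon 4000B scanner, is the binding signal. Transcription factors carrying an N-terminal polyhistidine tag and DsRed fusion were expressed in E. coli BL21-CodonPlus and purified on Ni–NTA. A custom Agilent array, made double-stranded by primer extension with Cy5-dUTP and blocked with 2% BSA, was incubated with 200 nM protein in PBS, 2% BSA, salmon testes DNA and 50 µM zinc acetate at 25 °C for 1 h and then washed.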
On to “TAGATTGAGACTCCAGTTTTATCTAAGTCTACACCAGAAGCGGAGTCACCTAGTGCAG”, for which the binding signal was 4240 fluorescence intensity (a.u.). Under “CAGCTCGTTGACATTCCTAATTGTTTTGATTGTCATCCACCGGAGTCACCTAGTGCAG” stands 14800 fluorescence intensity (a.u.); under “GTCGTAAATTTCGGAAATTTGGCTTCCGTAGCTGCATGCGCGGAGTCACCTAGTGCAG”, 8540 fluorescence intensity (a.u.). Next, “GCAAACCAATTAACTAGCCTTTAATTTGCGGTACGCTTCTCGGAGTCACCTAGTGCAG”: 22800 fluorescence intensity (a.u.). Take “AAACTAATTTTAGTGTGAAGTAAACATACCCTATGAATGGCGGAGTCACCTAGTGCAG”: the binding signal was 17800 fluorescence intensity (a.u.). Under “ATGGTAATTGCAGAGCAGGAATCAAGCTGGCCTGCCACTCCGGAGTCACCTAGTGCAG” stands 6710 fluorescence intensity (a.u.); under “AATAAGTAAATTGGTAGCCTAACTAGTCTAGAAATATGTTCGGAGTCACCTAGTGCAG”, 17800 fluorescence intensity (a.u.).

“GTTTAGTTTAAAATTAACACCAATTATTACTACTAGGACTCGGAGTCACCTAGTGCAG”: the binding signal is 12600 fluorescence intensity (a.u.). In the case of “ATAAATGAAATTGGATGGATGCCAAACTTTTGAGCTAATCCGGAGTCACCTAGTGCAG”, the binding signal is 10700 fluorescence intensity (a.u.). Under “AACAATTTACATTGTCATTTAGGTAAGATTCAATCTTATTCGGAGTCACCTAGTGCAG” stands 3270 fluorescence intensity (a.u.); under “ACCTAGTTATACTGACAAATTATGGTATACCTAAAATTTGCGGAGTCACCTAGTGCAG”, 3950 fluorescence intensity (a.u.); under “GTTGAGACAACATATTAATTTGACTATAATTTATGGTACACGGAGTCACCTAGTGCAG”, 11000 fluorescence intensity (a.u.). Under “GAAAACATTGCTACTAATTGTTTTATATTTTCTAGAAATTCGGAGTCACCTAGTGCAG” stands 3490 fluorescence intensity (a.u.); under “CATTTATACTGATAGTATAATATTATCAGTAAAGAGCACCCGGAGTCACCTAGTGCAG”, 3380 fluorescence intensity (a.u.); under “GCTGATTGAGAGTAGTAGTATTCTTTAGAGTAGTAGTATTCGGAGTCACCTAGTGCAG”, 47200 fluorescence intensity (a.u.). Next, “CACATAATTTTAGAGACCATCCATACACTTCTCTAATGACCGGAGTCACCTAGTGCAG”: 9180 fluorescence intensity (a.u.); “CATCAAAATTGAAAGTTTGGAAGTTTGGTTGAAATTGGAACGGAGTCACCTAGTGCAG”: 7900 fluorescence intensity (a.u.); “CATATTTTGAGATTGACAAAGTTATCATGGATGTCTTGCTCGGAGTCACCTAGTGCAG”: 16900 fluorescence intensity (a.u.). Consider “GTCACCAATCAATGGAAGTAATCAATCACCACCGGTAGATCGGAGTCACCTAGTGCAG”, for which the binding signal is 33600 fluorescence intensity (a.u.). Next, “ACGTGACTGAAAACTCTGAAACGCTGGGAATTTCTGAAAGCGGAGTCACCTAGTGCAG”: 6030 fluorescence intensity (a.u.); “GCTGACATATTGGCTTCACAATTGCTTTTCTTGTTACTTACGGAGTCACCTAGTGCAG”: 3990 fluorescence intensity (a.u.). Next, “TATAGAAATTGCTGATTGGTTACGTCGCAACTACTCTGACCGGAGTCACCTAGTGCAG”: 32400 fluorescence intensity (a.u.). Next, “CAGGCTTTCATGATTGTAAATTGTACAGAGTATGAATGTTCGGAGTCACCTAGTGCAG”: 6100 fluorescence intensity (a.u.); “TCTCTTATTGATGAACTCTTGAAGGGAACGGAAATCGAAACGGAGTCACCTAGTGCAG”: 4390 fluorescence intensity (a.u.); “TAATTAATCTATCATTAGCGTATATTTACTGTAGCAATACCGGAGTCACCTAGTGCAG”: 7440 fluorescence intensity (a.u.). Consider “AAAAGTAAATTAGAGCGAGATACGTATGAATGGAGTGGAACGGAGTCACCTAGTGCAG”, for which the binding signal is 4540 fluorescence intensity (a.u.). For the sequence “TTTTGATGAATAGGAGTATCACCGTTACCCAGTGGTAATCCGGAGTCACCTAGTGCAG”, the binding signal is 3530 fluorescence intensity (a.u.). As for “TGCATTAATGTCCATTTACTCCAATGCACAAATAACGAATCGGAGTCACCTAGTGCAG”, the binding signal was 3290 fluorescence intensity (a.u.). Next, “TTTCTTTTACTAATTGTTTGCTAATTAATGAATGTATGGCCGGAGTCACCTAGTGCAG”: 19500 fluorescence intensity (a.u.); “ATAGAAATTATAAATTATATTGGATGAGAAGTCTAGAATACGGAGTCACCTAGTGCAG”: 13300 fluorescence intensity (a.u.); “TCGATCACAAATTAATATTGTTTGCATACATACTCATATGCGGAGTCACCTAGTGCAG”: 6200 fluorescence intensity (a.u.).

As to “AAGAATTGATAGATGAAACGTGATTAGATACTAACTATACCGGAGTCACCTAGTGCAG”, the binding signal is 41200 fluorescence intensity (a.u.). For the sequence “TTGGCCTTAATCAATAATCACAAATTTCTGTGTGCAGTGCCGGAGTCACCTAGTGCAG”, the binding signal was 12000 fluorescence intensity (a.u.). For “TGCAGTGGTTAATTTATAACATCAAGAGACATCTGATGATCGGAGTCACCTAGTGCAG”, the binding signal was 6350 fluorescence intensity (a.u.). Regarding “TTTCTTTATTGACGAGATCTTTTCCATTTTGAAATTTGTGCGGAGTCACCTAGTGCAG”, the binding signal was 16600 fluorescence intensity (a.u.). Next, “AATTACTGTCATGATTTGAATTTGCAATCATTTCCTGTACCGGAGTCACCTAGTGCAG”: 18800 fluorescence intensity (a.u.); “ATAATATCGTGTCACCAGCGTGATTTACTGAAACATACCACGGAGTCACCTAGTGCAG”: 3260 fluorescence intensity (a.u.). Next, “AAAATTGCAATATTTAGATTTGTTCTTTTATGCATCGCATCGGAGTCACCTAGTGCAG”: 5510 fluorescence intensity (a.u.); “AATCATTATACTAATCAACCATACTTATATTATCGATAAGCGGAGTCACCTAGTGCAG”: 5440 fluorescence intensity (a.u.). Regarding “GGTGTGATTTACCGAGACAGACGAAGAGGACGGAGAAGGGCGGAGTCACCTAGTGCAG”, the binding signal was 23800 fluorescence intensity (a.u.). For “ATATATATCATTAGGAGTGCTAATTTATCTATTTGATACCCGGAGTCACCTAGTGCAG”, the binding signal is 3940 fluorescence intensity (a.u.). “TACCCTAATATAACGTGAGATTTGTAGCTAGTAAATTGAACGGAGTCACCTAGTGCAG”: the binding signal is 3500 fluorescence intensity (a.u.).
